44 compounds from publication PMC4336329 (PLoS ONE, 2015) can be followed below.

About 2,200 (0.71%) of roughly 310,000 compounds showed an effect of 50% or more. The effect is printed as a negative number. Some of the results follow.

The target of this experiment is human ether-à-go-go-related gene (hERG) potassium channel (human, UniProt Q12809). Description: primary screen, population patch clamp on CHO cells stably expressing hERG.
human ether-à-go-go-related gene (hERG) potassium channel, sequence (Q12809 whole entry, looked up): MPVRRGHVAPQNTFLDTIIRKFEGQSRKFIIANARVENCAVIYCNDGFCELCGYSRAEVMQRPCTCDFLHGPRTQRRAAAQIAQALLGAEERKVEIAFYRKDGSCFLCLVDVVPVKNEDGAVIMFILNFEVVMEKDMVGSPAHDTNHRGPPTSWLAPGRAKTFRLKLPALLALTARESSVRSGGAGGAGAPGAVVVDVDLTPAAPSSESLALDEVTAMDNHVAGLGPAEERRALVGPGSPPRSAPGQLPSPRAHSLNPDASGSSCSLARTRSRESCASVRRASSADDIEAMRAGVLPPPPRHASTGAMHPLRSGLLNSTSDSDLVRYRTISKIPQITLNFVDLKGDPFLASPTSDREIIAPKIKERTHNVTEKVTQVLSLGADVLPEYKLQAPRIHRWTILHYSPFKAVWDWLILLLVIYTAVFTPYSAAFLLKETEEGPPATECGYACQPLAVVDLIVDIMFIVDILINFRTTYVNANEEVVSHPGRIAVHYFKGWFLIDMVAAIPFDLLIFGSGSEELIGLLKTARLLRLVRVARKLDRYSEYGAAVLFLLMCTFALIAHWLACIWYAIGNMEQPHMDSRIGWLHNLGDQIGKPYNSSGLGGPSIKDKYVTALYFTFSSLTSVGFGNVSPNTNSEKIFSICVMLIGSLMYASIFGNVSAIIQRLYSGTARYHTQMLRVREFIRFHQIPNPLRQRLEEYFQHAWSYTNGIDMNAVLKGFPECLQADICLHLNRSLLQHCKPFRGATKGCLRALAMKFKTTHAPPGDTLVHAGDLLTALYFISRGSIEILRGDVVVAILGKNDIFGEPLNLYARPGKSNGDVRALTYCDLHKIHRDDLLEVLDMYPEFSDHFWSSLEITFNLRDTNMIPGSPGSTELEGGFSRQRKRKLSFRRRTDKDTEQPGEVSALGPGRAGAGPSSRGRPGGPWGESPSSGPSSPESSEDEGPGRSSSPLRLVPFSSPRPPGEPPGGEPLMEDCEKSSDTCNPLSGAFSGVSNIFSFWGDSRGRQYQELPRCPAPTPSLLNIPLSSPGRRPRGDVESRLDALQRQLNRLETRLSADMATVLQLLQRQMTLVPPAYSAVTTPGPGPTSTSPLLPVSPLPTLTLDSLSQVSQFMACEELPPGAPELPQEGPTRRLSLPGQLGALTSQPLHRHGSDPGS
On to `COc1cc(C2Nc3ccc4ncccc4c3C3=C2C(=O)CC(C)(C)C3)cc(OC)c1O` (centres unmarked), for which the “hERG current change (%, negative = inhibition) at 1uM” value is reported as 3.56%. On to `O=C(NNC(=O)c1cc2cc(OC(F)(F)F)ccc2[nH]1)c1cccc(C(F)(F)F)c1`, for which the “hERG current change (%, negative = inhibition) at 1uM” value worked out at 8.98%. With `CN(Cc1ccc(F)cc1)C(=O)COc1ccccc1-c1ccccc1`, the “hERG current change (%, negative = inhibition) at 1uM” value is 7.54%. With `O=C(Nc1cccc(C(F)(F)F)c1)c1cc(-c2ccc(F)cc2)on1`, the “hERG current change (%, negative = inhibition) at 1uM” value worked out at 5.78%.

Turning to `Cc1ccc2c(c1)NC(=O)C(CC(=O)NCCCN1CCN(c3cc(C)ccc3C)CC1)O2` (centres unmarked), the “hERG current change (%, negative = inhibition) at 1uM” value is given as -29.6%. Consider `C/C(N)=C(/C#N)C(=O)CSc1nnnn1-c1ccc(C)cc1C`, for which the “hERG current change (%, negative = inhibition) at 1uM” value stood at 1.94%. On to `COc1cccc(NC(=O)NCCc2ccc(Cl)cc2)c1`, for which the “hERG current change (%, negative = inhibition) at 1uM” value is on record as 5.86%. For `Cc1ccnc(NC(=O)CCCc2ccccc2)c1`, the “hERG current change (%, negative = inhibition) at 1uM” value is 15.4%. Consider `COc1ccc2c(c1OC)C(=O)OC2C1c2c(cc3c(c2OC)OCO3)CCN1C` (centres unmarked), for which the “hERG current change (%, negative = inhibition) at 1uM” value stood at 7.08%. Take `CC1(C)CC(=O)C2=C(C1)OC(N)=C(C#N)C2c1cccc(OC(=O)c2ccco2)c1` (centres unmarked): the “hERG current change (%, negative = inhibition) at 1uM” value is reported as 6%. With `O=c1[nH]c(CSc2ncccn2)nc2c1cnn2-c1ccccc1` the figure was 12.2%; with `Cc1cc(N2CCN(c3ccccc3)CC2)nc2ccccc12`, 10.1%; with `Cc1sc2ncnc(NCc3cccnc3)c2c1C`, -22.1%. Turning to `CCOC(=O)c1c(N)sc2c1CCSC2`, the “hERG current change (%, negative = inhibition) at 1uM” value was 10.6%.

Consider `COc1cc(-c2nnc(-c3ccc(N4CCOCC4)cc3)o2)cc(OC)c1OC`, for which the “hERG current change (%, negative = inhibition) at 1uM” value was -18.3%. Regarding `COc1cc(NC(=O)CSc2nc(C)cc(C)n2)cc(OC)c1OC`, the “hERG current change (%, negative = inhibition) at 1uM” value is given as 6.44%. With `O=C(NS(=O)(=O)Nc1ccccn1)c1c[nH]c2ccccc12`, the “hERG current change (%, negative = inhibition) at 1uM” value worked out at 14.2%. As to `CCC(=O)N(Cc1cc2cc(OC)ccc2[nH]c1=O)c1ccc(C)cc1`, the “hERG current change (%, negative = inhibition) at 1uM” value amounted to 11.5%. The value for `CN(C)c1ccc(CNCCC2(O)CCOC(C)(C)C2)cc1` (centres unmarked) was 0.472%; that for `CCCn1nc(Oc2nc(NCC)nc(NC(C)C)n2)ccc1=O` was 7.71%. For the compound `Cc1ccc(CNC(=O)Cn2nnc(C(=O)Nc3ccc(Br)cc3)c2N)cc1`, the “hERG current change (%, negative = inhibition) at 1uM” value is on record as 11%. With `CCOC(=O)c1nc(N)c(=O)n(-c2ccccc2)n1`, the “hERG current change (%, negative = inhibition) at 1uM” value is 4.58%.

With `O=C(O)C1C2C=CC(C2)C1C(=O)NCc1ccccc1F` (centres unmarked), the “hERG current change (%, negative = inhibition) at 1uM” value is listed as 14.1%. On to `COc1ccc(CC(=O)NNC(=O)c2ccc(SCc3cc(F)ccc3F)c([N+](=O)[O-])c2)cc1`, for which the “hERG current change (%, negative = inhibition) at 1uM” value is -12.9%. With `Cc1cc(NC(=O)C(C)Sc2nnc(NCc3ccco3)s2)no1` (centres unmarked) the figure was 6.85%; with `COc1ccc(C(=O)CNc2ccccc2Br)cc1`, 14.4%. The value for `O=C(CN1CCCCC1)Nc1ccccc1` was 9.84%; that for `Cc1cc(NC(=O)CN2C(=O)NC(CCc3ccccc3)C2=O)no1` (centres unmarked) was 8.63%. With `CN(C)c1ccc(C(CNC(=O)c2cccs2)N(C)C)cc1` (centres unmarked) the figure was 11.9%; with `C=CCNC(=S)NCc1ccc(CNC(=S)NCC=C)cc1`, 12.1%. Consider `CCN1CCN(C(=O)C(=O)c2c(C)[nH]c3ccccc23)CC1`, for which the “hERG current change (%, negative = inhibition) at 1uM” value worked out at 3.16%. In the case of `Cc1nn(-c2ccccc2)c(Cl)c1C(=O)NCC1CCCO1` (centres unmarked), the “hERG current change (%, negative = inhibition) at 1uM” value is 13.4%. For `C/C(=N/NC(=O)c1nnn(-c2nonc2N)c1COc1ccccc1)c1ccc(O)cc1`, the “hERG current change (%, negative = inhibition) at 1uM” value worked out at 16.1%. As for `C/C(Cn1nnc([N+](=O)[O-])n1)=N\NC(=O)c1ccncc1`, the “hERG current change (%, negative = inhibition) at 1uM” value was determined as 9.1%. On to `Cc1cccc(N(C(=O)c2snc(C(N)=O)c2N)C(C)C(=O)NCC2CCCO2)c1` (centres unmarked), for which the “hERG current change (%, negative = inhibition) at 1uM” value was found to be 20.4%. Regarding `CN(Cc1ccccc1)C(=O)c1nc[nH]c1C(=O)N1CCN(c2ccccc2)CC1`, the “hERG current change (%, negative = inhibition) at 1uM” value is 7.7%.

In the case of `C=CCn1c(Oc2ccccc2F)nc2c1c(=O)n(C)c(=O)n2C`, the “hERG current change (%, negative = inhibition) at 1uM” value stood at 14.3%.

As for `CC(C)c1nnc(NC(=O)CSc2nc3ccccc3s2)s1`, the “hERG current change (%, negative = inhibition) at 1uM” value is given as -2.37%. The value for `CCCC(=O)NC(NC1CCS(=O)(=O)C1)C(Cl)(Cl)Cl` (centres unmarked) was 4.89%; that for `CCOC(=O)c1[nH]c(C)c(/C(O)=C2\C(=O)C(=O)N(CCN(C)C)C2c2ccco2)c1C` (centres unmarked) was 7%; that for `Cc1ccc2c(c1)c(C1=NC(=S)NC1=O)c(O)n2C` was 9.62%. On to `COc1ccc([N+](=O)[O-])cc1N1C(=O)c2cccnc2C1=O`, for which the “hERG current change (%, negative = inhibition) at 1uM” value came to 9.85%. On to `Cl.O=C(c1ccccc1F)N1CCN(Cc2ccccc2F)CC1`, for which the “hERG current change (%, negative = inhibition) at 1uM” value was determined as 17.5%.

With `Cc1noc(C)c1CSCC(=O)Nc1cc(S(=O)(=O)N2CCOCC2)ccc1OCC(F)(F)F`, the “hERG current change (%, negative = inhibition) at 1uM” value is listed as 0.194%.
